The other results are listed elsewhere or left out. At the low end of the ranking, values are background and their order means little. Measured with an extract: partners may take part in the binding.

This assay deals with T1, HNF4alpha2 (COS-7 nuclear extract) (UniProt P41235).
T1 sequence: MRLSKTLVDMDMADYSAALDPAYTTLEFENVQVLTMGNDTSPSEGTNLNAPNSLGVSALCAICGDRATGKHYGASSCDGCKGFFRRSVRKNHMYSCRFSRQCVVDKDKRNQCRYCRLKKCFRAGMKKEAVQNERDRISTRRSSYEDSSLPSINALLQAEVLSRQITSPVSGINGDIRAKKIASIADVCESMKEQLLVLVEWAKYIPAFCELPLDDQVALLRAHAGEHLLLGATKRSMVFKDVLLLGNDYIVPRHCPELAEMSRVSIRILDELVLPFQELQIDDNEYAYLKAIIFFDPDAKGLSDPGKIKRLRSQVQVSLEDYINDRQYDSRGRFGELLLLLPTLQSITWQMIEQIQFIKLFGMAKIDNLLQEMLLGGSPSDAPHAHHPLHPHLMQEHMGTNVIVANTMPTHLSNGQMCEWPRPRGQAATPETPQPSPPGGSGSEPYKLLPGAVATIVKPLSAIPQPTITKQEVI
The assay can be described thus: protein-binding microarray. The following applies: COS-7 nuclear extract on double-stranded Agilent 4x180k PBM; binding buffer, salt, pH and temperature not given; high values mean tight binding; double strand, one strand shown; sequences stand for … in …GCCTAGGGAGATTAGAGTATCGGTCGA
Regarding GGATTAAAGGATCAACTTTCAGAAGGGGAC, the binding signal (log2 normalized intensity) was -1.06.
To TGCTATTAAGCACTAGAAAGTCTTGAAGTC belongs -0.734.
TGGTGAGCAGGTTAATTATAATCGCAGAAT: the binding signal (log2 normalized intensity) is -0.0715.
To AGATGAGCTCTGAACTAACAATTCTTTCTG belongs -1.15; to TGTTTGCATAAAGTTAAACTTTAAATTTGC, -0.247; to CACCCTCAAATCAGTGAAGGCCTCTGATGA, -0.871.
To AAGGTTCCAGGGAACTGTCCACCAAGGAGG belongs -1.13; to TTCTACTCTCCCCAGTTCAAAGGTTAAGAC, 5.21.
AAGTACACACTGTACCCGTCCACCTTTGGA: the binding signal (log2 normalized intensity) worked out at 2.66.
To TCCCCAGATTCCAGGGGAGGGTAAGAGTCC belongs 1.88.
CTGAGAGACTTTATCCGTATAACAAGACAG: the binding signal (log2 normalized intensity) amounted to 0.0517.
As for CCTTTTTCTGTTCAATGGTGCTTTTGATAT, the figure is 2.21.
As for TCCCAAGTAGCTCATTTATTATTTGTCTGG, the figure is 1.71.
Regarding GTGCCATGCCAAAGAAGCAAAGGTTGGCTA, the binding signal (log2 normalized intensity) is -0.695.
For GAAAGAGGGTGAAAGTACAGTGATGTTTGT, the binding signal (log2 normalized intensity) is 2.1.
For GACATAAATCACATTGTTAGCATAGCCTAT, the binding signal (log2 normalized intensity) was -0.761.
As for GCTCAGTAAATTATCTTGATGGTTAAAGTC, the figure is 0.851; as for GCCAATTAGAAGGCTCCCTGCTGCGGAGAG, -1.05; as for ACACACCGTTAGCCAATATTTGCAAGGCTG, -1.38.
With GATCATAAATGCCTCCCCCTCTTTATCTCC, the binding signal (log2 normalized intensity) was found to be 3.3.
For the sequence CCTGAAATTGAGATGAGATGGTCAAAGGTT, the binding signal (log2 normalized intensity) was 4.55.
To TTAAGACTCAAAGTTCAGTCGAATTTGGTT belongs 1.57; to GGTGAACTTTGAGACTATCCTTGGACCGCA, 2.51; to CTCTGGGGGAACCTCTGGTCAAATTCCAAC, 2.32.
In the case of TGAAAAGATAGCTTGAGGCCAGCTCATAGG, the binding signal (log2 normalized intensity) is -1.3.
To CACATTCGAAGTTTTGCTCCTTTGAGCACT belongs 1.16; to CTTTGCCCTTTGGGAAGGGGCAAAAGAGAG, 2.43.
To GGACAAAGTTCCCCGGGCAGCTGTGTTTGC belongs 0.389; to CTGTCTGCTGAGGATGTGGCCCCGAGATAA, 2.06; to TGTGGAATGGCAACATGTGGGCAAATAGGA, 0.477.
TTTTGATTGCTTAGGCTCTTGTTATGAAAC: the binding signal (log2 normalized intensity) was determined as 0.658.
Turning to GCATGCCCCGCGCCGCGTCCCTTCCCCCGG, the binding signal (log2 normalized intensity) was 3.82.
To CAGTATCAAAGTCCCCAGATAAGACAAAGT belongs 1.92; to CCCAAGATGGATTGGGTCCACACATTCCTA, -0.811; to TCTGATTGGTTGGAGAAAGCAGCCAACCAG, -1.09.
To GAGAAGACATAGTTTTTGCCCTTAAGCAGC belongs 1.55.
Regarding TCAGCCCACTTCCTACCATCAAAGGTTGTC, the binding signal (log2 normalized intensity) came to 1.07.
Regarding CAGTAACCTAAGTCAGGAAACTGACTCAAC, the binding signal (log2 normalized intensity) is -1.14.
As for CTTTTGGAATCCCCATCTCACCATAAACTC, the figure is 1.88; as for CAAAGATTGTGAGACAAGAGAAGAGAAAAA, -1.11.
As for GGGGCCCAGGTCGAAGTTTATGTTTACTGT, the figure is 1.36; as for GGCCCAGAGCACAACCTTTGGCCGTGCATG, 2.45.
Regarding ATCCTCAGGGTTCATAGATGATAGTGATAA, the binding signal (log2 normalized intensity) is 0.98.
On to CGCATGCATAACCAAACAGAGAGAAAGCAG, for which the binding signal (log2 normalized intensity) was -1.03.
Consider TACCTGTTTGCAAGCCCAAAGCCCCCAGAG, for which the binding signal (log2 normalized intensity) came out at 3.35.
To GGCTTTTGCAGTCACTCTCTAGAATGAGCC belongs -0.602.
Regarding CAGGATTCTTGCTACAACTGGACTAGACAG, the binding signal (log2 normalized intensity) was -1.07.
Turning to TGACCTGCAATGAAAGTCCACTTGTCTGGC, the binding signal (log2 normalized intensity) stood at 1.95.
As for TTGCCCACCCCCCAAGTAGAGAGCAATTAT, the figure is 3.78; as for GAACCCAGACTGCATTTTCATCTTGCCTTT, 0.316; as for AGTATTCATTCCCCTAGTATATTGGCTTGG, 1.54.
As for TGTGCTATTTTTGGCTTGGTTCCACATCAG, the figure is 1.75; as for TAGAAGAAAGCTTCATAGTGGTTTGACTTT, 1.17; as for TACAAAACCCCTTATCAGGTAGAACATTGC, 0.869.
Take TTAGAGGCTCAGGTAAAGGCATGCTTGGCA: the binding signal (log2 normalized intensity) was -1.16.
Consider CTGGGAAGGCTCGTTCTCGCGAGAGTTCAG, for which the binding signal (log2 normalized intensity) was 0.48.
As to ACGTCATTTTGTCACCTACATGTGAGAGAG, the binding signal (log2 normalized intensity) was found to be 0.937.
Turning to GCAAACTCTAGCTGTCCTCCTCTGAAGGAA, the binding signal (log2 normalized intensity) was -1.2.
As to GTTCACAATAAGAGGGTATACTATTTGCTA, the binding signal (log2 normalized intensity) was -1.1.
To CCAGCTAAAACTGCAGATTGACTCAGGCAT belongs -1.19.
For AGCATGTTTGGTGACCCGTGACCCTCAGGA, the binding signal (log2 normalized intensity) came to 3.04.
As for CCTAAGCCCTGCTCAGGGAATGTGGGTCCA, the figure is 2.18; as for AAGCCTTTCTGAGGAGCTAACAGTAAAACT, -1.17.
Regarding CTGCCAAAGGTAAAAAATGCAAGTTTATCG, the binding signal (log2 normalized intensity) was -1.12.
To TTGAAGCTCTGGTTCAAACAAGGCCAAAGT belongs 1.72; to GTAAGCACAAAGTACAGCTTTTTGTTTGTG, 1.95; to GATGGGCAACTGTCCGAGTTGTCAAAAGGG, -1.16.
As for AGTTACGTAATGTGTCCCCACATCTGTGAA, the figure is 1.7.
As for GGGACCTGAGAACATGTAATCATTTGGGAC, the figure is -0.802.
For the sequence CTTCTCATCTTTATCATGTGGTATTAACAT, the binding signal (log2 normalized intensity) came out at 2.39.
Turning to CACTAAAGTTACAAGATCTTTGGACTATTG, the binding signal (log2 normalized intensity) was 3.79.
For the sequence CCGGCAGCAGCCTTGCCTTTGATGTGTCCA, the binding signal (log2 normalized intensity) was found to be 0.415.

The record behind these values is paper PMC10726135.
